Assay results: PubChem BioAssay AID1508623 (National Center for Advancing Translational Sciences (NCATS), 2021)
About 450 (0.94%) of roughly 48,000 compounds were called active. Not shown: some 19% with an inconclusive outcome. Calls come from the whole dose curve; as a rule, active = well fitted inhibition curve with a large enough effect; inconclusive = small, poorly fitted or top-dose-only effect; inactive = no such curve, though single readings can be large or run the other way. Some of the results follow.

Assay: Primary qHTS for Identification of Small Molecule Inhibitors of Huntingtin Promoter Activity; note: nearly all actives have a fitted effect of over 50% in size
Details: HEK293 HTT promoter firefly luciferase reporter (activity 0% = vehicle and -100% = no light), 24 h; series mostly up to 57.5 µM; activity change, negative = inhibition: at the top concentration
Method in brief: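 Firefly luciferase signal from promoter-reporter HEK293 cells was scaled between vehicle (0%) and zero RLU (-100%). Compounds were tested at final concentrations of up to 57.5 uM over 24 h at 37 degrees C. PTC124 at 50 uM final served as control inhibitor.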

Activity change, negative = inhibition, inactive:
Cc1ccccc1NC(=O)c1sc2nc(-c3cc4ccccc4oc3=O)[nH]c(=O)c2c1C -1.57%, CNC(=O)c1c(I)c(NC(C)=O)c(I)c(C(=O)O)c1I -0.247%, CCN(C(=O)Cn1c(C(=O)OC)cc2sccc21)c1cccc(C)c1 -22.7%, CCCn1cc(S(=O)(=O)c2ccc(C)c(C)c2)c(=O)c2cc(F)c(N3CCCCC3)cc21 -4.68%, CC(C)NC(=O)c1ccc(CSc2nc3ccncc3n2Cc2cccc(F)c2)cc1 -9.5%, O=C(NC1CCCCC1)c1ccc(CSc2nc3cccnc3n2Cc2ccccc2)cc1 -28.9%, CC1=C(c2ccc(C(C)C)cc2)S(=O)(=O)N=C1N1CCC(C(=O)NCc2ccc(C)o2)CC1 -20.8%, Cc1ccccc1-c1noc(-c2ccc(NCc3cccnc3)c([N+](=O)[O-])c2)n1 -28.6%, Cc1c(CC(=O)NCCc2ccccc2)c(=O)oc2c(C)c3occ(C(C)(C)C)c3cc12 -6.13%, CC(=O)c1cccc(NC(=O)Cn2ccn3nc(-c4ccccc4)cc3c2=O)c1 -15.7%, CCOC(=O)c1c(N)n(-c2ccc(OCC)cc2)c2nc3ccccc3nc12 -1.76%, Cc1ccc(CN(Cc2cccn2-c2nnc(N3CCCC3=O)s2)C(=O)Nc2ccccc2Cl)cc1 -23.4%, O=C(COc1ccccc1-c1nc(-c2ccccc2)no1)Nc1ccc([N+](=O)[O-])cc1 0.346%, Cc1nc2c(-c3ccc(F)cc3)c(C)nn2c(C)c1CCC(=O)NCc1ccc(F)cc1 -13%, CCOC(=O)c1c(C)[nH]c(CCC(=O)NCc2ccc(OC)cc2OC)c1C -23.9%, CC(C)CCNC(=O)c1cc(-c2cccnc2)nc2ccc(S(=O)(=O)N3CCC(C)CC3)cc12 -4.29%, O=C(CSc1nc2c([nH]c3ccccc32)c(=O)n1-c1ccccc1)N1CCCCC1 -3.26%, COc1ccc(NC(=O)c2nnn(-c3ccc(C(C)C)cc3)c2C)c(OC)c1 -10.8%, CCCCC1=NC2(CCCC2)C(=O)N1Cc1ccc(-c2ccccc2-c2nn[nH]n2)cc1 3.49%, COc1ccc(OC)c(-c2noc(N3CCN(c4cccc(C(F)(F)F)c4)CC3)n2)c1 -23.9%, CCOc1ccc(-c2cc(C(=O)NCCc3ccc(C)cc3)c3ccccc3n2)cc1 25.5%, Cc1cccc(-n2c3nc(=O)[nH]c(=O)c-3cc3ccc(Cl)cc32)c1C -13.7%, Cn1c(CN2CCOCC2)nc2cc(NC(=O)c3ccccc3[N+](=O)[O-])ccc21 -19.5%, COc1ccc(-c2coc3cc(O)cc(O)c3c2=O)cc1 17.5%, COc1cc(OC)c(NC(=O)c2ccc(-n3cnc4cccnc43)cc2)cc1Cl -24.9%, O=C(NCCCN1CCN(c2ccc(F)cc2)CC1)Nc1ccccc1Cl -16.2%, CN(C(=O)c1cc2c(Cl)nc3ccccc3c2s1)c1cccc(C(F)(F)F)c1 4.04%, O=C(Cn1nc(-c2ccccc2)c2c(c1=O)CCCC2)Nc1ccc(F)c(Cl)c1 -29.9%, Cc1ccc(NC(=O)c2oc3ccc(S(=O)(=O)N4CCCCCC4)cc3c2C)c(C)c1 -10.3%, CCn1c(=O)c2cc(C(=O)NC3CCC(C)CC3)sc2c2ccccc21 (stereo not given) -9.66%, COc1ccc(NC(=O)c2cc3c(=O)n(Cc4cccs4)ccc3nc2C)cc1 -21.2%, COc1ccc(OC)c(NC(=O)Cn2c(=O)n(-c3cccc(C)c3)c(=O)c3c2c2cc(C)ccc2n3C)c1 -9.62%, COc1ccc(-n2c(C)nnc2SCc2nc(-c3ccc(OC)c(OC)c3)no2)cc1 -23.2%, Cc1ccc(NC(=O)c2c(NC(=O)c3ccc(F)cc3)sc3c2CCCC3)cc1C 56.6%, CCOC(=O)c1cc(OC(=O)c2cc(OC)c(OC)c(OC)c2)n(-c2ccccc2)n1 -11.8%, CCOc1ccc(-n2c(SCC(=O)Nc3cc(C)on3)nc3c([nH]c4ccccc43)c2=O)cc1 -25.1%, CCc1ccccc1N(C)C(=O)Cn1cnc2sc(C)c(S(=O)(=O)N3CCC(C)CC3)c2c1=O -7.15%, COc1cccc(CNC(=O)CCCn2nc(C)c3sc4ccccc4c3c2=O)c1 6.99%, Cc1ccc(Nc2ccc3cc(S(=O)(=O)N4CCCCC4)ccc3n2)cc1F -16.1%, CCOC(=O)c1ccc(NC(=O)CSc2nc(-c3ccc(OC)cc3)cc(C(F)(F)F)c2C#N)cc1 -13.5%, CC(C)c1noc(N2CCC(COc3ccc(-c4ccc(S(C)(=O)=O)cc4)nc3)CC2)n1 -16%, CCn1cc2nc(SCC(=O)Nc3ccc(OC)c(Cl)c3)n(Cc3ccc(OC)cc3)c(=O)c2n1 -23%, COc1ccc(N(CC(=O)N2CCN(c3ccccc3)CC2)S(=O)(=O)c2c(C)nn(C)c2C)cc1 -9.07%, COc1ccc(-c2cc3nc(C)c(CCC(=O)NCc4ccccc4Cl)c(C)n3n2)c(OC)c1 -34.5%, CC(=O)c1ccc(NC(=O)c2cn(-c3ccccc3)nc2-c2ccc(Br)cc2)cc1 -7.35%, O=C(CCC1CCCC1)N1CCc2c([nH]c3ccccc23)C1c1ccc(F)cc1 (stereo not given) -28.6%, N#Cc1nc(COc2ccccc2Cl)oc1NCCc1ccccc1 3.03%, CCOc1ccc(NC(=O)NCCN2CCN(c3cccc(C)c3C)CC2)cc1 -29.2%, CCc1cccc(C)c1NC(=O)C1CCN(S(=O)(=O)c2c(C)noc2/C=C/c2c(C)cc(C)cc2C)CC1 -8.33%, Cc1ccc(CCNC(=O)CN(c2cc(C)cc(C)c2)S(=O)(=O)c2c(C)noc2C)cc1 -8.2%, COc1ccccc1Nc1nc(-c2ccc(F)cc2)c2c(n1)-c1ccccc1OC2 -14.5%, COc1cccc(-n2ccn(CC(=O)NCc3ccc(C)cc3)c(=O)c2=O)c1 -16%, CCOc1ccc(C2CC(=O)NC(NC(=O)c3cccc(Cl)c3)=N2)cc1 (stereo not given) -1.91%, Cc1ccc(CSC2=Nc3ccccc3C3=NC(CC(=O)NCc4cccs4)C(=O)N23)c(C)c1 (stereo not given) -4.34%, O=C(Nc1ccc2nc(SCCOc3ccccc3)sc2c1)c1ccccc1F 4.03%, CCOC(=O)c1c(C)c(-c2ccccc2)n(CC(=O)Nc2ccc(OCC)cc2)c1C -9.53%, COc1ccc(-c2cn3c(n2)sc2cc(C(=O)Nc4cccc(SC)c4)ccc23)cc1 -21%, Cc1ccc(-c2ccc(=O)n(CC(=O)NCCc3ccc(Cl)cc3)n2)cc1 -28.5%, COC(=O)C(CCSC)NC(=O)Cn1ncc2c([nH]c3ccccc32)c1=O (stereo not given) 4.81%, COc1cccc2c1cc1c(=O)n(CC(=O)N3CCN(c4cccc(Cl)c4)CC3)nc(C)n12 3.12%, O=C(OCc1cc(=O)n2nc(-c3cccs3)sc2n1)c1ccccc1 -2.52%, CC(=O)n1nc(-c2cccnc2)nc1NCc1ccc(F)cc1 -18.3%, O=C1c2oc3ccccc3c(=O)c2C(c2ccc(O)cc2)N1Cc1ccc2c(c1)OCO2 (stereo not given) 21.4%, O=C(c1ccc(Cl)cc1)N1CCC(c2nc3ccccc3o2)CC1 -27.9%, CCOc1ccc(NC(=O)c2c(NCc3ccc(C)o3)sc3c2CCCCC3)cc1 -9.51%, CCn1cc(C(=O)OCC(=O)Nc2cc(OC)cc(OC)c2)c(=O)c2ccc(C)nc21 -15.5%, Cc1ccc(CNC(=O)CN2C(=O)CSc3ccc(S(=O)(=O)N(C)C)cc32)cc1 -21.4%, Cc1cc(OCC(=O)Nc2c(C(=O)c3ccccc3)oc3ccccc23)cc(C)c1Cl 8.39%, CCOC(=O)C1CCCN(c2c(C(=O)c3ccc(OCC)cc3)cnc3ccccc23)C1 (stereo not given) -35.7%, CC(C)CN(CCCNC(=O)c1cc(-c2cccs2)nc2ccccc12)CC(C)C -14.7%, Cc1nn(C)c2c1c(-c1ccccc1)cc(=O)n2Cc1ccccc1C#N -34%, CCCCc1nn2c(=O)cc(COC(=O)c3cccc(Cl)c3)nc2s1 -25.2%, Cc1cccc(C)c1NC(=O)Cn1nnc(C(=O)Nc2c(C)cccc2C)c1N -8.04%, Cc1ccc(CNC(=O)CN2C(=O)CSc3c2c(C)nn3-c2ccccc2)cc1 -12.9%, COc1ccc(NC(=O)c2oc3ccccc3c2NC(=O)Cc2coc3cc(C)ccc23)cc1 -1.93%, COc1ccc(C)cc1NC(=O)CCNC(=O)Cn1ccc2ccccc2c1=O -14.8%, COCCCn1c(=N)c(C(=O)NCc2cccnc2)cc2c(=O)n3cccc(C)c3nc21 2.51%, CCOC(=O)c1c(C)[nH]c(CCC(=O)NCc2cccc(C)c2)c1C -13%, COc1ccc(-n2ncc(C(=O)Nc3ccc4c(c3)OCO4)c2C2CCN(C(=O)OC(C)(C)C)CC2)cc1 20.3%, COc1ccc2oc(-c3ccc(C)c(NC(=O)c4ccc5c(c4)OCCO5)c3)nc2c1 -0.296%, Cn1c(-c2ccccc2)cnc1NCc1ccccc1O 7.52%, O=C(NCc1ccccc1Br)c1ccc2c(c1)nc1n2CCOC1 7.71%, CCCNC(=O)COCc1cc(-c2ccc(F)cc2)on1 7.8%, O=C(CCC1N=C2c3ccccc3N=C(SCc3ccccc3F)N2C1=O)NCc1ccccc1 (stereo not given) 6.12%, COc1ccc(NC(=O)CN2C(=O)CSc3ccc(S(=O)(=O)N(C)C)cc32)cc1Cl -30.6%, COc1ccc(NC(=O)C2CCN(C(=O)N3CCOc4ccccc43)CC2)cc1 -12.8%, Cc1ccccc1Cn1nnc2c(=O)[nH]c(C3CCN(C(=O)c4ccccc4Cl)CC3)nc21 -15.5%, Cc1ccc(-n2ncc(C(=O)NCc3ccccn3)c2C2CCN(C(=O)OC(C)(C)C)CC2)c(C)c1 -30.4%, COc1ccc(CNC(=O)CCCn2c(=O)c3cccn3c3ccc(F)cc32)cc1OC 10.2%, O=c1c2cc3c(cc2n(Cc2ccccc2)c(=O)n1Cc1nc(-c2ccccc2)no1)OCO3 14.3%, COc1ccc(NC(=O)N2CCN(S(=O)(=O)c3ccc4c(ccn4C)c3)CC2)cc1OC -2.3%, CCC1CN(C(=O)NCc2ccccc2)c2cc(C)ccc2O1 (stereo not given) -12.8%, COCCCNC(=O)C(C)n1c2ccccc2c2cnn(C)c(=O)c21 (stereo not given) -10.4%, CCCSc1nc(-c2ccc(OC)cc2)cc(-c2ccccc2OC)c1C#N 17.7%, COc1ccc(Br)cc1CNC(=O)c1cc(=O)[nH]c2ccc(S(=O)(=O)N3CCCCC3)cc12 -1.01%
